To fix the notation:
B1: PhoQ; a variant is named by its letters at X, in order, P23837 (parent)
chain: MKKLLRLFFPLSLRVRFLLATAAVVLVLSLAYGMVALIGYSVSFDKTTFRLLRGESNLFYTLAKWENNKLHVELPENIDKQSPTMTLIYDENGQLLWAQRDVPWLMKMIQPDWLKSNGFHEIEADVNDTSLLLSGDHSIQQQLQEVREDDDDAEMTHSVAVNVYPATSRMPKLTIVVVDTIPVELKSSYMVWSWFIYVLSANLLLVIPLLWVAAWWSLRPIEALAKEVRELEEHNRELLNPATTRELTSLVRNLNRLLKSERERYDKYRTTLTDLTHSLKTPLXXLQXXLRSLRSEKMSVSDAEPVMLEQISRISQQIGYYLHRASMRGGTLLSRELHPVAPLLDNLTSALNKVYQRKGVNISLDISPEISFVGEQNDFVEVMGNVLDNACKYCLEFVEISARQTDEHLYIVVEDDGPGIPLSKREVIFDRGQRVDTLRPGQGVGLAVAREITEQYEGKIVAGESMLGGARMEVIFGRQHSAPKDE

This is one part of the list.

The variants in this test derive from B1. Kind of test: enrichment ratio after two sorts for PhoP signalling (ratio (wild type AVST 3.29)); higher = more functional. Conditions: with PhoP (E. coli).
Turning to HAYQ, the enrichment ratio is not above 0.25. The value for ELDE was not above 0.25; that for PTDA was not above 0.25.

As to HNKF, the enrichment ratio is not above 0.25. To HMQS belongs not above 0.25. For the variant SENL, the enrichment ratio was not above 0.25.

Turning to PTVR, the enrichment ratio was not above 0.25.

With TNML, the enrichment ratio was found to be 1.41. Regarding PFHR, the enrichment ratio is not above 0.25.

On to HKMV, for which the enrichment ratio was not above 0.25. Turning to PEVE, the enrichment ratio is not above 0.25. To VAFE belongs not above 0.25; to GNRE, not above 0.25; to APIL, not above 0.25. To LDMY belongs 1.27; to FEIV, not above 0.25; to QEFV, 1.89. For the variant FTMP, the enrichment ratio is not above 0.25. The value for IICW was not above 0.25; that for LHVM was not above 0.25; that for IEKI was not above 0.25. The value for APWE was not above 0.25. HQNS: the enrichment ratio was not above 0.25. In the case of YWFE, the enrichment ratio was not above 0.25. For GQMT, the enrichment ratio is not above 0.25.

In the case of PQQN, the enrichment ratio was not above 0.25. To TGQF belongs 3.99. The value for WTVR was not above 0.25; that for EQLT was not above 0.25.

For MTFD, the enrichment ratio is not above 0.25. The value for VGMD was not above 0.25; that for STEM was not above 0.25.

Turning to IRTL, the enrichment ratio is not above 0.25.

With HHVD, the enrichment ratio was not above 0.25.

As to LYGN, the enrichment ratio was not above 0.25. The value for VNQT was not above 0.25.

Turning to EPPH, the enrichment ratio is not above 0.25.

With KGTH, the enrichment ratio is 0.909. To TVTE belongs not above 0.25; to IRNM, not above 0.25; to TYTQ, not above 0.25.

As to YIYF, the enrichment ratio was not above 0.25. The value for ICGW was not above 0.25; that for EHNF was not above 0.25; that for YPQN was not above 0.25. As for TPRM, the enrichment ratio is not above 0.25. Regarding IQRW, the enrichment ratio was not above 0.25.

Regarding FKFA, the enrichment ratio was not above 0.25.

Turning to LKWI, the enrichment ratio is not above 0.25. To WHSA belongs not above 0.25; to SMVM, 9.46; to SWHH, not above 0.25. The value for AIVK was not above 0.25; that for WEWT was not above 0.25. As to LTTN, the enrichment ratio was not above 0.25.

Turning to HADM, the enrichment ratio is not above 0.25. For the variant RYTM, the enrichment ratio was not above 0.25.

As to EQQN, the enrichment ratio was not above 0.25. To FIIL belongs not above 0.25; to PQLL, not above 0.25. Regarding TCHR, the enrichment ratio was not above 0.25. HRKQ: the enrichment ratio was not above 0.25. As to EICQ, the enrichment ratio is not above 0.25. To RADM belongs not above 0.25. Take DDNQ: the enrichment ratio is not above 0.25. To DQTP belongs not above 0.25; to YSIR, not above 0.25. The value for EAEH was not above 0.25; that for YDQK was not above 0.25; that for SPME was not above 0.25. To INMA belongs not above 0.25; to AFGY, not above 0.25; to FAHI, not above 0.25. With HRHR, the enrichment ratio is not above 0.25. To KDNM belongs not above 0.25. To PLPC belongs not above 0.25. To TLNT belongs 1.35.

IEYS: the enrichment ratio is not above 0.25.

Take MQFK: the enrichment ratio was not above 0.25. The value for GQVM was 10.8; that for PDAP was not above 0.25; that for DLKC was not above 0.25. The value for HFIL was not above 0.25; that for IRAG was not above 0.25; that for KLKF was not above 0.25. The value for MAFA was not above 0.25. Consider WSYD, for which the enrichment ratio was not above 0.25. The value for TGIP was not above 0.25. To DVWF belongs not above 0.25. For GDDF, the enrichment ratio was not above 0.25.

For YKFN, the enrichment ratio is not above 0.25.

Regarding QQGF, the enrichment ratio was not above 0.25. In the case of GCFN, the enrichment ratio was not above 0.25.

Turning to GKKA, the enrichment ratio was not above 0.25. As for NLHL, the enrichment ratio is not above 0.25. The value for YWPR was not above 0.25. Take MHNM: the enrichment ratio is not above 0.25. To ATNA belongs not above 0.25; to LQKS, not above 0.25. With VHSW, the enrichment ratio was not above 0.25. To AWRF belongs not above 0.25; to DILD, not above 0.25. To NKDS belongs not above 0.25; to KHHC, not above 0.25; to QMYC, not above 0.25. The value for AVYW was not above 0.25; that for QNLP was not above 0.25. With LVIA, the enrichment ratio was not above 0.25. To MEIL belongs 5.36; to DGGC, not above 0.25; to WVMC, not above 0.25. Turning to RDDP, the enrichment ratio is not above 0.25. To SYYV belongs not above 0.25; to LRIG, not above 0.25.

As to SNAV, the enrichment ratio was 12.6. The value for YFED was not above 0.25; that for WGRT was not above 0.25. In the case of FWHA, the enrichment ratio is not above 0.25. To LHGK belongs not above 0.25. The value for KKDQ was not above 0.25; that for NESS was not above 0.25.

Regarding EATT, the enrichment ratio was not above 0.25.

ANCA: the enrichment ratio was determined as 44.6. To YSKG belongs not above 0.25. The value for GMTP was not above 0.25; that for KYWK was not above 0.25. VPRF: the enrichment ratio is not above 0.25. As for TDHV, the enrichment ratio is not above 0.25. The value for DLII was not above 0.25; that for QICN was not above 0.25. To YHWA belongs not above 0.25; to VAWE, not above 0.25; to KGEP, not above 0.25. The value for DFFI was not above 0.25; that for ANFM was not above 0.25; that for YPDC was not above 0.25. ISPK: the enrichment ratio was not above 0.25.

Consider FGKR, for which the enrichment ratio was not above 0.25. To PELA belongs not above 0.25. To WACG belongs not above 0.25; to IIIA, not above 0.25. To HKRP belongs not above 0.25; to GWDT, not above 0.25; to WSGC, not above 0.25. As for DAVS, the enrichment ratio was not above 0.25. As for LHER, the enrichment ratio was not above 0.25. The value for TMRQ was not above 0.25; that for EHIF was not above 0.25.

In the case of FALA, the enrichment ratio worked out at 5.9.

Consider HISN, for which the enrichment ratio was not above 0.25. For the variant APHY, the enrichment ratio is not above 0.25. With GKSH, the enrichment ratio was not above 0.25. The value for HWLG was not above 0.25.

Values taken from a collection of fitness landscapes (doi:10.1126/science.1257360).
